{"source": "paper PMC4877375", "binders": {"B1": {"name": "Trs130p (two-hybrid fusion) (protein, UniProt Q03660 1-1102)", "chain": "MDKEIYCGSVPVSYFDPFDLFESLRPEFQQILPLDNIHWKAFDGTVRTVNRLPIELIPEGRGEADKSNDEQPFIRFLIVNCISIDQYRAKVRPLVRQWLPNLESVSSSTGEKMIYKPIILLYANSEVVDSNLFKSVSLMEKFGKDFPHVQTLEVRSVYRSPKERQEFWNQFSQKIKASVLSIFQKRLTHLQHSLANLQKGNNFEEQLLTREKLYELYVVFNILEDASLELQKIKKEILRRNMNMPDGKLQVPFESSSKSDESLGSIIIEGTLDKFQLHKYFFIRRLRLLKLEDQTLTAFVGAFQLIKNFIESISIEYRKSVRLLEFKHYFITSMLSYFEFENVSNPLLCEIKAELLMLKRDNWVQGVMATSGYRLMDKNYPNSDVKYKFDLLKETFVDETVFQENFLTLTKEILSLFNKCEGKRQRIVDILSIEIGLLYYQGKKYEEAVSLFLSCYEYYTQTNWNSIGLKILQVFIDSLSHCPKLDVLQIDGESVSASAVLTNAFLNILKLCKDNDSKEIWWKKFMDLQMKNNIHLMYPLDGLFEVTLNSKVHLARANVSAIEVNLKSYGFPEDISTKTMRLSLKNMGGDVIVFGASDFLLKKGENKLILECRDIMYGEFSLLSFEIIVEGITFVKEFPENQDEFIVVPEIYCKESTKVLVKQAHNLNLGEYALELKSVQSDALESLQVEVEVQKNIGNMKNLPVSFSMDEIQARKRYNTPFENVRLEYYLLDQITAFDLIIKTSFTKKNDQGTFGETKKVRIQCYLQLSVSVEDIFKKDIFFFKFLLNSSVREEPVILYSSELSAPDTRNDYNIRGDYIATTPALITFDGNESFINCYEITANNNFDSKDIFNLKVRYNTLKEQLDCFITDAVLIEGDVEWFILFEKWKTFWELEILKKLKYDYDAFKENRIIRLLKTSIDLNKTKSKIRNLCIEKAVLDKILICLNKVSRGIAVCNTDMDEYVRNLVPKQLTVPVQLPGFEQFFHVQFEQMETSHDALHDTIATIGNSLSYTVIVENLSGQWGQDVIDDGGYIFEILSSNEWLIHGQKRCAIKEKRKEFEVHLIPLKKGYLNFPRVEITNINGKSCRVDHSNAFESILIF"}, "B2": {"name": "TRS33 (two-hybrid fusion) (protein, UniProt Q99394 1-268)", "chain": "MSSTHSNNVGHPQSSPQGPLTEQQRAQQQYQIFENSLPKVSQSVYQMLLNEMVPLAMGIERQISGDVISSDSNVTSENGNINNMIKRLKIEEHHTVDIIRSHNLIHELYKADEEEKEKVLARLRNIGFQIGLKLSELLIFSNNPNLKFKEMDLLLIMKFICRDVWKQIFGKQIDNLKTNHRGTFYLLDYDYRPIQSFSLEEDAKNEELKMIEPFLEIPVGIIRGVLSSLGYSSEEVICLASFIDRPTDRPKTAFPKGVSFHVQVTMPQ"}, "B3": {"name": "TRS65 (two-hybrid fusion) (protein, UniProt P32893 1-560)", "chain": "MECFVPLRCDLDGSNIEQLRQSHLSRKFIIFDEQLNLWLWFQGNSQENKRFVLQNMIILINEAQVTRTSTIDDYFTQVENNENLWRLKNDCCSKILFKSNVVMNNGYNNQIKFVFEYKSVDANFNNQDSLQDPQAKYTLDKYSSEEILPSFEPVYSWSSAATKSSKNTNNHLEKNNRATHRVSSKNSEVHEADVSRNPNTFTLKLQYPIFSLLNMRLRNISLKSEHCILSSLDFQTSKASEQLTKKFIYPQEHNSFLKLNFQEISYKLIDGTSQIELDPICPLKVPLTAFSYDSISATFKLVLLPKSTQPHRVKITLAYELELHPNLKLPVRTSWETEVTLKRSMPISSTSSQYSSNNNNTNHSASFNGAANNVNSGGLANLRLGGVSSSRFSLGAASTTSLVNSKLSNVKFKFINSNIKVIKGEKFTMRLQIINSSSSPLDLVVYYNNTINPIPSANNVRNSNGINNCGMNNGTIPNSPLTLENQYQLHNKYRKIAEGIILLSNDYKIPVVPPRETYFADLRFIGIMSGYYGTLSGLKVLDLNTNELIEVGNGASVLIQ"}, "B4": {"name": "TCA17 (two-hybrid fusion) (protein, UniProt P32613 1-152)", "chain": "MSLRPCFVSLIDESDKPILIYVPNEAENEMNDVLKYNVLSNISLDYFESALVEWHSLDSKPLLKSIFQLEGVSVFAMLIKQTGLKIVIGFEQKSLSGADDEFEAINQIFETVRKIYIRVKCNPLLVSGDEKSIIKSLERKFDELFISTEVEL"}, "B5": {"name": "TRS85 (two-hybrid fusion) (protein, UniProt P46944 1-698)", "chain": "MVFSYEHYMNLLFHLDNSKETVPPEIAKRIISNAIAPVITVTSTPLFDKHIQETYKVDSLYMLLRFFGGCVSDRDQANEAKVGQHEHEVCDASDSTDSIPKNKNLEVPNLSKKGSRSRSNSLFQRDSTQSQYIRFTRPLGDLIETRDANDMLFNYHSLEVFLDNYLKLVAANTDEMVPHNLLKKSIYHSFFSLAISSTNNLSPYETFNHPILSLIALDISNGEVYEDARDLLVNFKNLNHNTENFPIFMNTNEMLPVFLLCYNDDSQEEFEKCQALAKKLKKQLFVESILLALWKDSFIYDENSVIQLHQPVMSSLEEILFFLQAPTQTTLSLALINSIYDMLDYLVYDLMIPFMKRKVSFWEETILQPRKSLFNGAKFFKKFMNKNPVNGNHQHNSLTRDSQGNEYFASSSSEFLMRKLADWSMMLSDFKTAYSTYESLMDDLDAFPKYLASCIEWCAVSLLMGAQSIVTVKMIKNDINPLIERALATYENCSRIQRGKGKESNSLDVTEPVRSYETRCMILASELFLSLSNTWTSTPYAIQYLETILDECKLGPCSQIMVWERLSDCYNLRVDPRIKHRVGAMKKDAKDTEDLRGEHKYSTDHFTDEDILSEGLTRRRKAAFFRLIAAKKWAEQKQWRQVSWCLKDIESTYSEIKFLHGNGLILSKLKNQLNLKDVDSAPRPSEKNLTRTSVSFIG"}, "B6": {"name": "Trs130p lacking the carboxy-terminal 50 amino acids (two-hybrid fusion) (domain or fragment, UniProt Q03660 1-1052)", "chain": "MDKEIYCGSVPVSYFDPFDLFESLRPEFQQILPLDNIHWKAFDGTVRTVNRLPIELIPEGRGEADKSNDEQPFIRFLIVNCISIDQYRAKVRPLVRQWLPNLESVSSSTGEKMIYKPIILLYANSEVVDSNLFKSVSLMEKFGKDFPHVQTLEVRSVYRSPKERQEFWNQFSQKIKASVLSIFQKRLTHLQHSLANLQKGNNFEEQLLTREKLYELYVVFNILEDASLELQKIKKEILRRNMNMPDGKLQVPFESSSKSDESLGSIIIEGTLDKFQLHKYFFIRRLRLLKLEDQTLTAFVGAFQLIKNFIESISIEYRKSVRLLEFKHYFITSMLSYFEFENVSNPLLCEIKAELLMLKRDNWVQGVMATSGYRLMDKNYPNSDVKYKFDLLKETFVDETVFQENFLTLTKEILSLFNKCEGKRQRIVDILSIEIGLLYYQGKKYEEAVSLFLSCYEYYTQTNWNSIGLKILQVFIDSLSHCPKLDVLQIDGESVSASAVLTNAFLNILKLCKDNDSKEIWWKKFMDLQMKNNIHLMYPLDGLFEVTLNSKVHLARANVSAIEVNLKSYGFPEDISTKTMRLSLKNMGGDVIVFGASDFLLKKGENKLILECRDIMYGEFSLLSFEIIVEGITFVKEFPENQDEFIVVPEIYCKESTKVLVKQAHNLNLGEYALELKSVQSDALESLQVEVEVQKNIGNMKNLPVSFSMDEIQARKRYNTPFENVRLEYYLLDQITAFDLIIKTSFTKKNDQGTFGETKKVRIQCYLQLSVSVEDIFKKDIFFFKFLLNSSVREEPVILYSSELSAPDTRNDYNIRGDYIATTPALITFDGNESFINCYEITANNNFDSKDIFNLKVRYNTLKEQLDCFITDAVLIEGDVEWFILFEKWKTFWELEILKKLKYDYDAFKENRIIRLLKTSIDLNKTKSKIRNLCIEKAVLDKILICLNKVSRGIAVCNTDMDEYVRNLVPKQLTVPVQLPGFEQFFHVQFEQMETSHDALHDTIATIGNSLSYTVIVENLSGQWGQDVIDDGGYIFEILSSNEWLIHGQKRC"}, "B7": {"name": "BET5 (two-hybrid fusion) (protein, UniProt Q03630 1-159)", "chain": "MGIYSFWIFDRHCNCIFDREWTLASNSASGTINSKQNEEDAKLLYGMIFSLRSITQKLSKGSVKNDIRSISTGKYRVHTYCTASGLWFVLLSDFKQQSYTQVLQYIYSHIYVKYVSNNLLSPYDFAENENEMRGQGTRKITNRNFISVLESFLAPMVNQ"}, "B8": {"name": "TRS20 (two-hybrid fusion) (protein, UniProt P38334 1-175)", "chain": "MPQYFAIIGKKDNPVYEIEFTNAENPQGFPQDLKELNPFILHASLDIVEDLQWQINPTSQLNGNGGNGSNGGGGFLRSRAVNNTDNCYLGKVDHFYGLAITAYISYSGMKFVMIHGNSANSSVVIDDNNMRSFYQEVHELYVKTLMNPFYKITDPIRSPAFDSRVRTLARKHLSK"}, "B9": {"name": "BET3 (two-hybrid fusion) (protein, UniProt P36149 1-193)", "chain": "MVSTTQSRSLKAMGEEIWKNKTEKINTELFTLTYGSIVAQLCQDYERDFNKVNDHLYSMGYNIGCRLIEDFLARTALPRCENLVKTSEVLSKCAFKIFLNITPNITNWSHNKDTFSLILDENPLADFVELPMDAMKSLWYSNILCGVLKGSLEMVQLDCDVWFVSDILRGDSQTEIKVKLNRILKDEIPIGED"}, "B10": {"name": "TRS23 (two-hybrid fusion) (protein, UniProt Q03784 1-219)", "chain": "MAIETILVINKSGGLIYQRNFTNDEQKLNSNEYLILASTLHGVFAIASQLTPKALQLTQQTNIENTIPYIPYVGMSSNRSDTRNGGGNNNKHTNNEKLGSFKGDDFFKEPFTNWNKSGLRQLCTDQFTMFIYQTLTGLKFVAISSSVMPQRQPTIATTDKPDRPKSTSNLAIQIADNFLRKVYCLYSDYVMKDPSYSMEMPIRSNLFDEKVKKMVENLQ"}, "B11": {"name": "TRS31 (two-hybrid fusion) (protein, UniProt Q03337 1-283)", "chain": "MSQRIIQPSASDQQFPGKSDGYEYTVGPKQAITSEASTTYIPSRIYSESLLFKRQEASLSAMAFLFQEMISQLHRTCKTAGDFETKLSDYGHNIGIRLLELLNFRASVSPSSLPRASAFLSQNESSSKLSNASNSPGMLANSSTATSASANERLQEKQTESLSNYITKMRRRDLKILDILQFIHGTLWSYLFNHVSDDLVKSSERDNEYMIVDNFPTLTQFIPGENVSCEYFVCGIIKGFLFNAGFPCGVTAHRMPQGGHSQRTVYLIQFDRQVLDREGLRFG"}}, "target": "T1, full length Gyp6p (two-hybrid fusion) (yeast) (UniProt P32806)", "T1 sequence": "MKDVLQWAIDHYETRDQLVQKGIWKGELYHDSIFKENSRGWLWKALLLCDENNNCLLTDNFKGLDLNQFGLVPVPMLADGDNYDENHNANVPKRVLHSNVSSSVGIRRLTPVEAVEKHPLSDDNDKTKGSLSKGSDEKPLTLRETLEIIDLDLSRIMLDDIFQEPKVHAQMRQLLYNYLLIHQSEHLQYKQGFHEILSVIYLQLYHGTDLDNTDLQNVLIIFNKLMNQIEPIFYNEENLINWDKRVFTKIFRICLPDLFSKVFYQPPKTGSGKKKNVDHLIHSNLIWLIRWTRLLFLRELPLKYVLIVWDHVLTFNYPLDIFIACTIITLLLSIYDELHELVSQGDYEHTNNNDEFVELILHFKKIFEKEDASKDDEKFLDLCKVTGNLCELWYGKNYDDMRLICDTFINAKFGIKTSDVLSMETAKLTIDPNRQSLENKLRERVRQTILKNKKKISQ", "assay": "two-hybrid; pGADT7 fusions in AH109 mated with pGBKT7 fusions in Y187; growth of diploids on medium without histidine (Figure 1C also without adenine)", "note": "No constants are given. Whether binding was seen depends on the method and setting. Some results given as binding are weak or reduced against the parent protein; the word gives no strength. Sequences can lack the tags named with a protein.", "data": [{"binder": "B1", "values": [{"measurement": "binding", "result": "binds"}]}, {"binder": "B2", "values": [{"measurement": "binding", "result": "no binding"}]}, {"binder": "B3", "values": [{"measurement": "binding", "result": "no binding"}]}, {"binder": "B4", "values": [{"measurement": "binding", "result": "no binding"}]}, {"binder": "B5", "values": [{"measurement": "binding", "result": "no binding"}]}, {"binder": "B6", "values": [{"measurement": "binding", "result": "no binding"}]}, {"binder": "B7", "values": [{"measurement": "binding", "result": "no binding"}]}, {"binder": "B8", "values": [{"measurement": "binding", "result": "no binding"}]}, {"binder": "B9", "values": [{"measurement": "binding", "result": "no binding"}]}, {"binder": "B10", "values": [{"measurement": "binding", "result": "no binding"}]}, {"binder": "B11", "values": [{"measurement": "binding", "result": "no binding"}]}]}
